# According to PubChem BioAssay AID686979 (National Center for Advancing Translational Sciences (NCATS), 2013):
# Several values for one entry are separate records, joined by “and”; a condition that tells them apart may be missing. Equal values may be shown once. Hit rate of the full screen: of about 420,000 compounds, about 50,000 (12%) were called active. Inconclusive results, whose numbers are uncertain, are shown with a selection of clear calls. Calls come from the whole dose curve; as a rule, active = well fitted inhibition curve with a large enough effect; inconclusive = small, poorly fitted or top-dose-only effect; inactive = flat fitted curve, though single readings scatter. Potencies of inconclusive entries are left out as doubtful fits.
# Assay: qHTS for Inhibitors of human tyrosyl-DNA phosphodiesterase 1 (TDP1): qHTS in cells in presence of CPT; note: nearly all actives have a fitted effect of over 55% in size
# Conditions: chicken DT40 Tdp1-/-;hTDP1 cells + 20 nM CPT, ATP luminescence, 48 h; series mostly up to 46.2 µM
# How it was run: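 Cell growth measured by CellTiter-Glo luminescence after a minimum 48 h, 37 C compound exposure with 20 nM CPT in Tdp1-knockout DT40 cells stably expressing hTDP1, seeded 400/well; qHTS titration format.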
# Potency is the fitted concentration of half-maximal effect; tags give direction and shape of the fitted curve.
row,SMILES,Potency
1,O=C(C[C@H]1C[C@H](C(=O)N2CCOCC2)[C@@]2(CCC3CCCC3)c3[nH]c4cc(-c5ccco5)ccc4c3CCN2C1=O)NCCC1=CCCCC1,"inconclusive [inhibitor, single point]"
2,O=C(O)Cc1ccc(OCc2ccc(Cl)nc2)cc1,inactive
3,C[C@H]1CN([C@@H](C)CO)C(=O)CCCn2nncc2CO[C@H]1CN(C)C(=O)Nc1ccccc1,"inconclusive [inhibitor, single point]"
4,Nc1ncnc2c1c(I)cn2C1OC(CO)C(O)C1O (stereo not given),active: 731 nM and active: 580 nM and active: 490 nM
5,COCCN1C(=O)C(CC(=O)Nc2ccccc2)SC1=Nc1ccc(OC)cc1 (stereo not given),inactive
6,CCOc1ccccc1NC(=O)C(=O)CC(=O)c1cccc(OC)c1,"inconclusive [inhibitor, single point]"
7,Cc1cccc(NC(=S)NNC(=O)c2csc3c2CCCC3)c1,"inconclusive [inhibitor, single point]"
8,CCc1ccc(-c2cc(C)no2)cc1S(=O)(=O)Nc1ccc(C)cn1,"inconclusive [inhibitor, single point]"
9,CCCCNS(=O)(=O)c1cc(-c2nn(C)c(=O)c3ccccc23)ccc1C,"inconclusive [inhibitor, single point]"
10,CCn1cc(C(=O)O)c(=O)c2cc(F)c(N3CCN(C(=S)NC(=O)c4ccccc4Cl)CC3)cc21,"inconclusive [inhibitor, single point]"
11,O=C(O)CC(C(=O)OC1CCCCC1)N1CCOCC1 (stereo not given),inactive
12,COCCCn1c(C2CCCCC2)nc2oc3cc(OC)ccc3c(=O)c2c1=O,"inconclusive [inhibitor, single point]"
13,O=S(=O)(c1cnc(Cl)c(Br)c1)N1CCCCCC1,inactive
14,Cc1cc(C)c(C(=O)NC2CCCc3c2cnn3-c2cccc(C)c2C)o1 (stereo not given),active: 20.6 µM
15,CC(C)(C)OC(=O)[C@H](Cc1ccccc1)NC(=O)c1ncn2c1c(=O)[nH]c1ccc(Br)cc12,active: 4.61 µM
16,O=C(Nc1ccc(O)cc1)/C(=C\C=C\c1ccccc1)NC(=O)c1ccccc1,"inconclusive [inhibitor, single point]"
17,CNC(=S)N(CCc1c(C)[nH]c2ccc(C)cc12)Cc1ccco1,"inconclusive [inhibitor, single point]"
18,O=C(c1cccc2cccc(O)c12)N1CCCCC1,"inconclusive [inhibitor, single point]"
19,COC(=O)[C@H](CC(C)C)NC(=O)c1cc2c(cn1)[nH]c1ccccc12,"inconclusive [inhibitor, single point]"
20,CC(=O)Nc1nc2ccccc2n1CCOc1ccccc1,"inconclusive [inhibitor, single point]"
21,CC(C)CCNC(=O)C1CCN(S(=O)(=O)c2cccc3nsnc23)CC1,inactive
22,Cc1ccc(C)n1-c1cccc(C(=O)Nc2ccccc2)c1,"inconclusive [inhibitor, single point]"
23,CSc1ccc(CCNC(=O)CCc2nnc3ccc(N4CCCCC4)nn23)cc1,"inconclusive [inhibitor, partial curve]"

row,SMILES,Potency
1,Cc1cccc(-c2nnn3c2nc(NCc2ccccc2)c2ccccc23)c1,"inconclusive [inhibitor, single point]"
2,COc1ccc(CCN=C(N)NS(=O)(=O)c2ccc(C)cc2)cc1,inactive
3,N#Cc1ccc(CN2CCN(C(=O)C3CC(=O)N(c4ccccc4F)C3)CC2)cc1 (stereo not given),inactive
4,O=C1CC2(CCN(C(=O)c3ccc(F)c(F)c3)CC2)Oc2ccccc21,active: 29.1 µM
5,COc1ccc(-c2cc(C(=O)N(C)CC(=O)Nc3cccc(F)c3)c3ccccc3n2)cc1,active: 16.4 µM
6,O=C(O)CSC1CC(=O)N(c2cccc(Cl)c2)C1=O (stereo not given),inactive
7,CCOc1ccc(S(=O)(=O)N2CCC(C(=O)NCc3ccccc3CN3CCCC3)CC2)cc1,inactive
8,O=C(N/C(=C/c1cccc([N+](=O)[O-])c1)C(=O)N1CCCCCC1)c1ccco1,"inconclusive [inhibitor, single point]"
9,CCOc1ccc(CCNC(=O)c2cnc3sc(N4CCCCC4)nn3c2=O)cc1,"inconclusive [inhibitor, single point]"
10,Clc1ccc(-c2nc3cnccn3c2NC2CCCC2)cc1,"inconclusive [inhibitor, partial curve, poor fit]"
11,Cc1ccc(CNC(=O)c2ccc(Cl)c(S(=O)(=O)N3CCCCC3)c2)cc1,inactive
12,O=C(Nc1ccccc1C(=O)OCC(=O)N1CCc2ccccc2C1)c1ccco1,"inconclusive [inhibitor, partial curve, poor fit]"
13,COC(=O)c1ccc(CSc2nc3ccc(S(N)(=O)=O)cc3[nH]2)cc1,inactive
14,CCOC(=O)c1ccccc1NC(=O)COC(=O)CN1C(=O)C2CC=CCC2C1=O (stereo not given),"inconclusive [inhibitor, single point]"
15,COCCNc1nc2cc(-c3ccccc3)sc2c(=O)n1C,"inconclusive [inhibitor, partial curve]"
16,CSc1ccccc1NC(=O)CN(C)C(=O)/C=C/c1ccccc1,inactive
17,COc1ccc(N2C(=O)CSC23C(=O)N(CC(N)=O)c2ccccc23)cc1 (stereo not given),inactive
18,Brc1cccc[n+]1CCCC[n+]1ccccc1Br,active: 8.91 µM
19,CCn1c(CCCNC(=O)c2ccc(F)cc2)nc2ccccc21,"inconclusive [inhibitor, single point]"
20,COc1cc(C=O)cc(Cl)c1OC(=O)N1CCOCC1,inactive
21,CC(C)[C@H](CO)Nc1nc(NCc2ccc(S(N)(=O)=O)cc2)c2ncn(C(C)C)c2n1,"inconclusive [inhibitor, single point]"
22,Cc1[nH]c2ccc(F)cc2c1CCN(Cc1ccncc1)C(=S)Nc1ccc(F)cc1,"inconclusive [inhibitor, single point]"
